Experimental data taken from PubChem BioAssay AID1963576 (National Center for Advancing Translational Sciences (NCATS), 2024).
Hit rate of the full screen: of about 46,000 compounds, about 60 (0.1%) were called active. Not shown: some 3% with an inconclusive outcome. Calls come from the whole dose curve; as a rule, active = well fitted inhibition curve with a large enough effect; inconclusive = small, poorly fitted or top-dose-only effect; inactive = no such curve, though single readings can be large or run the other way. The list shows a part of the results.

Test: Primary qHTS assay for Inhibitors of ovarian cancer metastasis using an organotypic tumor microenvironment (TME) model.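 For activity change, negative = inhibition: plate controls were DMSO wells for no effect and tomatine positive control wells for full effect.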 Note: nearly all actives have a fitted effect of over 65% in size.
Conditions: SKOV3ip1-GFP adhesion/invasion on 3D omental model, fluorescence; series mostly up to 45.8 µM; activity change, negative = inhibition: at the top concentration
Summary of the method: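 Adhesion/invasion was scored as fixed GFP-labeled SKOV3ip1 cell counts (488/509 nm), normalized to DMSO and tomatine controls. Cancer cells in serum-free medium, with four compound doses (0.36-46 umol/L), sat 2 hr at RT then 16 hr at 37 C on a 48 hr fibroblast/mesothelial/ECM culture.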

Activity change, negative = inhibition, inactive:
CCCNC(=O)C1=CC(c2ccc3c(c2)OCO3)=NS(=O)(=O)N1C -7.9%
COc1cc(OC)c(OC)cc1CN1CCc2nc(Nc3ccc4c(c3)OCCO4)ncc2C1 5.31%
COc1ccc(CNC(=O)C(=O)Nc2c3c(nn2-c2ccccc2)CSC3)cc1 -4.49%
CC=C1NC(=O)[C@H]2CSSCCC=C[C@H](CC(=O)N[C@H](C(C)C)C(=O)N2)OC(=O)[C@H](C(C)C)NC1=O -15.5%
Cc1c(C(=O)N2CCCCC2)c(S(=O)(=O)NCc2ccc(N(C)C)cc2)c(C)n1C -8.7%
Cc1ccc(-c2cc(N)n(-c3ccc(C)cc3)n2)cc1 -3.09%
CCOc1ccc(C(=O)c2cn(CC(=O)Nc3cccc(OC)c3)c3cc4c(cc3c2=O)OCCO4)cc1 10.8%
COc1ccc(N2CCN(C(CNC(=O)C(=O)NCc3cccnc3)c3cccnc3)CC2)cc1 (configuration not stated) 2.77%
Cc1ccccc1CNC(=O)Cc1ccc(NC(=O)N2CCCCc3ccccc32)cc1 1.16%
Cn1c(=O)c2c(nc(N3CCOCC3)n2Cc2cccc(Br)c2)n(C)c1=O -0.708%
Cc1[nH]n2c(=O)cc(-c3ccc(Cl)cc3)nc2c1-c1ccccc1 0.766%
Cc1cccc(N2CCN(C(=O)C3CCN(C(=O)c4cc5sccc5n4C)CC3)CC2)c1C 1.7%
CCOc1ccc(NC(=O)C2CCN(c3nnc(C)c4c(C)n(-c5ccccc5)nc34)CC2)cc1 8.6%
CCOC(=O)c1c(C)oc2nc(C)nc(N3CCN(c4ccccc4F)CC3)c12 -6.17%
Cc1ccc(-c2[nH]c3c(c2-c2c(-n4cccc4)n(C)c(=O)[nH]c2=O)c(=O)[nH]c(=O)n3C)cc1 -5.96%
COc1ccc(CNC(=O)c2ccc3nc(CCc4ccccc4)oc3c2)cc1 -12%
CSc1ccc(C2CC(=O)Oc3c2c(=O)n(C)c2ccccc32)cc1 (configuration not stated) 1.88%
Cc1ccc(/C=C/c2onc(C)c2S(=O)(=O)N2CCC(C(=O)N3CCOc4ccc(C)cc43)CC2)cc1 9.36%
Cc1c(C(=O)N2CCCC2)oc2c1-c1nn(CC(=O)NCc3ccccc3Br)cc1CC2 -9.99%
Cc1ccc(F)cc1NC(=O)CCc1c(C)nn(-c2ccc(N3CCOCC3)nn2)c1C 67.2%
CC1Cn2c(C(=O)NCCc3ccc(Cl)cc3)cc3cccc(c32)S1 (configuration not stated) 5.08%
Cc1ccc2[nH]cc(S(=O)(=O)c3ccc(C)c(C)c3)c(=O)c2c1 4.7%
CC1CCN(c2nn3c(=O)c(C(=O)NCCc4ccccc4)cnc3s2)CC1 0.356%
Cc1cc(=O)n(C(C)C(=O)N2CCCc3ccccc32)c2c1c(C)nn2-c1ccccc1 (configuration not stated) 2.63%
O=C(CN1C(=O)COc2ccc(S(=O)(=O)N3CCCCCC3)cc21)Nc1cccc(Cl)c1 1.43%
COc1ccc(-c2cc(C(=O)Oc3ccc(C)cc3)c3cc(C)ccc3n2)cc1 4.62%
Cc1nc2scc(C)n2c(=O)c1S(=O)(=O)Nc1ccc(N2CCN(S(C)(=O)=O)CC2)cc1 -7.12%
CC(=O)N1CCc2c(sc3nc(SCC(C)C)n(-c4ccc(C)c(Cl)c4)c(=O)c23)C1 -4.91%
Cc1ccc(-c2nnc(Nc3ccc(OC(F)(F)Cl)cc3)c3ccccc23)cc1S(=O)(=O)NC(C)(C)CO 28.3%
O=C(COc1ccccc1)N(Cc1cccnc1)c1nc2c(F)cccc2s1 -1.11%
O=C(Nc1ccc(-c2nc3cc(NC(=O)c4ccc(F)cc4)ccc3o2)cc1)c1ccc(F)cc1 13.7%
CCc1nn2c(=O)cc(COC(=O)c3ccc(NC(=O)CCc4ccccc4)cc3)nc2s1 1.63%
CCCCn1c(=N)c(S(=O)(=O)c2ccc(C)cc2)cc2c(=O)n3cc(C)ccc3nc21 13.3%
CCCN(CCC)CCCNC(=O)c1cnn(-c2ccc(F)cc2)c1-n1cccc1 -13.5%
COc1cc(/C=C(\C#N)c2nc3ccccc3[nH]2)ccc1OCc1ccc(F)cc1 34.6%
COc1cc(-c2nc(SCC(=O)Nc3ccc(C)cc3)c(-c3ccc(F)cc3)[nH]2)cc(OC)c1OC 5.93%
CCc1nc(SC)ncc1C(=O)N1CCN(c2cc(Cl)ccc2C)CC1 0.148%
CC(NC(=O)C1CCN(S(=O)(=O)c2ccccc2)CC1)c1ccccc1 (configuration not stated) 16.4%
Cc1nn(C(C)C(=O)Nc2ccc(C(C)C)cc2)c(=O)c2c1sc1ccccc12 (configuration not stated) 13.1%
Cc1ccccc1CNC(=O)C1=Cc2ccccc2OC1 4.88%
CCCn1c2ccccc2c2cnn(CC(=O)NCC3CCN(Cc4ccc(F)cc4)CC3)c(=O)c21 -22.4%
CCc1ccccc1NC(=O)c1cc(S(=O)(=O)N2CCc3ccccc32)ccc1F 3.59%
COc1ccccc1CNc1nc(-c2ccco2)nn1C(=O)c1cc(OC)c(OC)c(OC)c1 5.13%
CN(Cc1cnc2nc(N)nc(N)c2n1)c1ccc(C(=O)N[C@@H](CCC(=O)O)C(=O)O)cc1 25%
C#CC(C)(CC)NC(=O)Cn1nnc(-c2ccc(OCc3ccccc3C)cc2)n1 (configuration not stated) 1.47%
Cc1cccc(-c2nn3c(=O)cc(CN4CCN(C(=O)c5ccccc5Br)CC4)nc3s2)c1 -0.666%
COc1ccccc1N1CCN(C(=O)c2cnn(-c3cccc(Cl)c3)c2C2CCN(C(=O)OC(C)(C)C)CC2)CC1 12.7%
CN(C)c1ccc(-c2nnc3n(Cc4ccccc4)c(=O)c4ccccc4n23)cc1 -4.37%
CC(=O)Nc1ccc(NC(=O)CCSCCc2ccccn2)cc1 5.63%
Cc1ccc(NC(=O)c2c(NC(=O)Cc3ccccc3)sc3c2CCCC3)cc1 6.39%
CC(=O)c1cccc(NC(=O)Cn2c(=O)oc3cc(S(=O)(=O)N4CCCC4)ccc32)c1 5.14%
CC(C)(C)c1ccc(Oc2ccc(NC(=O)CCC(=O)OCC(=O)c3ccccc3)cc2)cc1 -1.06%
Cc1ccc2oc(=O)c3cc(C(=O)N4CCN(c5ccccc5F)CC4)sc3c2c1 3.03%
COc1ccc(-n2c(SCC(=O)Nc3cccc(C)c3C)nc3c([nH]c4ccccc43)c2=O)cc1 -11.9%
CN(C)c1ccc(CNC(=O)c2ccc(NC(=O)N3CCCCc4ccccc43)cc2)cc1 -2.34%
CCc1ccccc1NC(=O)C1CCN(c2cnccn2)CC1 4.86%
CCCCSCCCNC(=O)c1cn(C)c2ccc(S(=O)(=O)N3CCCCCC3)cc2c1=O 0.646%
CC(C)CCn1nnc2sc(-c3ccccc3)cc2c1=O 2.59%
COc1ccc2c(c1)c1c(c(=O)n(-c3ccc(OC)c(OC)c3)c(=O)n1Cc1ccccc1F)n2C -8.12%
CC(=O)c1nnn(-c2ccc(C)cc2Cl)c1C -17.7%
CC(=O)c1ccc(Nc2ccc3cc(S(=O)(=O)N4CCCC4)ccc3n2)cc1 2.11%
O=C(Nc1cccc(C(=O)N2CCN(c3cccc(Cl)c3)CC2)c1)c1nsc2ccccc12 7.99%
COc1cc(OC)c(NC(=O)c2nn(-c3ccc(C)cc3)c(=O)c3c2c2ccccc2n3C)cc1Cl 1.61%
CCOC(=O)C1CCN(C(=O)c2ccc(NC(=O)c3nsc4ccccc34)cc2)CC1 1.21%
CCOc1ccc(C2c3c(oc4ccc(C)cc4c3=O)C(=O)N2CCCN(C)C)cc1 (configuration not stated) 32.5%
CSc1ccc(CCNC(=O)C(C)n2nc(C)c3sc4ccccc4c3c2=O)cc1 (configuration not stated) 5.37%
Cc1ccccc1Cn1c2ccccc2c2cnn(CC(=O)NCC(C)c3ccccc3)c(=O)c21 (configuration not stated) 0.323%
O=C(NCc1ccccc1Cl)c1ccc(Cn2c(SCc3ccccc3)nc3cccnc32)cc1 4.71%
Cc1ccc(NC(=O)c2ccc(CNS(=O)(=O)c3ccc4c(c3)C(C)(C)C(=O)N4C)cc2)cc1C 4.3%
CC(=O)N1c2ccc(S(=O)(=O)NCC3CCC(C(=O)Nc4ccc(C)c(C)c4)CC3)cc2CC1C (configuration not stated) -9.44%
Cc1cc(C(=O)NCc2cccc(Br)c2)c2c(C)nn(-c3ccccc3)c2n1 -0.569%
O=C(CCn1ccc2cc(S(=O)(=O)N3CCCC3)ccc21)NCc1cccc(Cl)c1 3.85%
Cc1cc(C)c2c(-n3cccc3)c(C(=O)NCc3cccc(F)c3)sc2n1 -3.8%
CCOc1ccc(NC(=O)c2nc3nc(C)cc(C(F)F)n3n2)cc1 -0.347%
COc1ccc(OC)c(Nc2ncnc3c2nc2n3CCCC2)c1 19.1%
COc1cc(CCNC(=O)c2ccc3c(c2)c(C)c(C)n3Cc2cccc(C)c2)cc(OC)c1OC 9.55%
COc1ccc(-c2cc(=O)c3cc(OCC(=O)OC(C)C)ccc3o2)cc1 1.25%
Oc1ccc(-c2nc(-c3ccccc3)c(-c3ccc(Br)cc3)[nH]2)cc1 -20.9%

outcome, inactive:
Cc1nn2c(-c3ccco3)ccnc2c1-c1ccc(Br)cc1
Cc1ccc(C2Nc3cc(C)c(C)cc3-n3c(-c4ccccc4)c4c(=O)n(C)c(=O)n(C)c4c32)o1 (configuration not stated)
Cc1ccc(NC(=O)CSc2nc3c([nH]c4ccccc43)c(=O)n2-c2ccccc2)cc1Cl
COc1ccc(C)cc1NC(=O)CCc1c(C)nn(-c2ccc(N3CCCCC3)nn2)c1C
CCC(=O)C1=C(c2ccc(OC)c(OC)c2)N(C(=O)CC)n2c(CC)nnc2S1
CCOc1ccc(CCNC(=O)CN2C(=O)COc3ccc(S(=O)(=O)N4CCCCCC4)cc32)cc1
N#Cc1c(-n2ncnc2-c2cccc(Br)c2)sc2c1CCCCC2
Cc1ccc(Cl)cc1N1CCN(C(=O)CCCn2c(=O)[nH]c3ccc(Br)cc3c2=O)CC1
O=C(NCCS(=O)(=O)N1CCN(c2ccc(F)cc2)CC1)c1cccc(C(F)(F)F)c1
COc1cc(NC(=O)CSc2nccn2C)cc(OC)c1OC
O=C(CCn1cnnn1)Nc1cc(C(F)(F)F)cc(C(F)(F)F)c1
CCc1ccccc1NC(=O)c1ccc2c(SCC(=O)O)c3c(nc2c1)CCC3
COCCCn1c(=N)c(C(=O)NCc2cccnc2)cc2c(=O)n3cc(C)ccc3nc21
Cc1nn(-c2ccccc2)c2c1cc1c(=O)n(C)c(=O)nc-1n2-c1cccc(Cl)c1
